Experimental data from the supplement of paper PMC10126150.
Values marked as one replicate rest on one cluster of the flow cell; about a third of the high ones do not repeat.

Each sequence was assayed on ATP (assay: switch fluorescence ratio, 500 uM ATP over buffer (Cy3 cluster intensity, sum of 5 cycles each) (fold (ratio)); higher = stronger signal-on switching upon ATP binding; sequences stand for … in TCGTCGGCAGCGTCAGATGTGTATAAGAGACAGTTTTTTTTTTTTTTTTTTTTTTTTT…TC). Conditions: aptamer strand: ATP DNA aptamer (quencher-CACCTGGGGGAGTATTGCGGAGGAAGG + anchor), 100 nM annealed; ATP concentration: 500 uM; one replicate.
Method in brief: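 After annealing to 100 nM quencher-labelled ATP aptamer, Cy3-labelled switching-strand clusters on a modified Illumina MiSeq flow-cell were imaged in selection buffer. A second image followed after 15 min with 500 uM ATP at 22 °C, and five such buffer/ATP cycles were done, each separated by NaOH stripping and re-annealing. The fluorescence ratio, averaged per switch-domain sequence, is summed target-cycle over summed buffer-cycle Cy3 intensity per cluster, with clusters outside 100-1000 RFU excluded.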
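Also: ATP exposure 15 min at 22 °C before imaging.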

Sequence | switch fluorescence ratio
TATACATGGT | 1.01
TATACATTGC | 1.03
TATACCTGTT | 1.02
TATACGAGC | 1.02
TATACGCAAA | 2.73
TATACGGCGG | 1.02
TATACGTCGC | 0.975
TATACTCGTT | 1.03
TATACTGTGT | 1.01
TATACTTG | 1.01
TATACTTGAG | 0.968
TATAGCGTCT | 0.963
TATAGCTACG | 0.998
TATAGCTGCC | 1.19
TATAGGATAA | 0.993
TATAGGCAA | 1.06
TATAGGCGTG | 1.02
TATAGGGA | 0.986
TATAGGGCA | 1.01
TATAGTAAAG | 1.01
TATAGTGTCA | 1
TATATAACCT | 1.08
TATATAATCC | 1.08
TATATAGTGG | 1.02
TATATAGTGT | 0.953
TATATCAACG | 0.983

Sequence | switch fluorescence ratio
TATATCATCG | 0.987
TATATCGGTT | 0.969
TATATCTCAC | 1.09
TATATCTCGT | 1.05
TATATCTGAG | 1.03
TATATCTTTA | 1.03
TATATTGTCC | 1.05
TATCAAACTT | 1.09
TATCAAGGTA | 0.973
TATCACGCAG | 1.05
TATCAGTGGA | 1.04
TATCCACTAT | 1.01
TATCCAGAAT | 1.07
TATCCAGTAT | 0.994
TATCCGACTA | 1.11
TATCCGGGCC | 0.968
TATCCTCATC | 1.02
TATCCTGGT | 1.01
TATCGACGCC | 1.58
TATCGAGTTC | 1.02
TATCGCGCGC | 0.98
TATCGCTAAG | 1.03
TATCGGTACT | 1.07
TATCGGTCC | 0.963
TATCGGTCCT | 0.983
TATCGGTGCG | 0.964

Sequence | switch fluorescence ratio
TATCGTAAAG | 0.993
TATCGTCTGT | 0.985
TATCTAATTG | 0.985
TATCTACG | 1
TATCTCACTT | 1.03
TATCTCAGTG | 0.948
TATCTCGCCA | 1.07
TATCTCGGAC | 1.04
TATCTCTTCA | 1.04
TATCTGGTGG | 1.03
TATCTGTAGC | 1.03
TATCTGTGGC | 1.04
TATCTTCGAC | 0.995
TATCTTCTC | 1.02
TATCTTGCAA | 5.25
TATCTTGTAA | 1.01
TATGAACGAA | 1.02
TATGAAGCGT | 0.971
TATGACACT | 1.04
TATGACAGAT | 0.971
TATGAGAAG | 1.01
TATGAGAGC | 0.922
TATGAGGTGG | 1.06
TATGAGGTTT | 0.973
TATGATGTA | 0.985
TATGATTCGC | 0.95

Sequence | switch fluorescence ratio
TATGATTCTT | 1.02
TATGCAAATG | 1
TATGCCACC | 1.03
TATGCCAGCC | 1.07
TATGCCCGA | 0.966
TATGCCCGGT | 1.15
TATGCCGTGC | 1
TATGCGAACC | 1.01
TATGCGAGCG | 1.02
TATGCGATCG | 0.969
TATGCTCTCT | 1.03
TATGCTTTAG | 0.947
TATGGCAATG | 1.03
TATGGCGCGA | 1.02
TATGGGAAGT | 0.963
TATGGGCCGC | 1.13
TATGGGTGGA | 0.986
TATGGTAAT | 0.98
TATGGTCGCA | 1.01
TATGGTCGGT | 1.01
TATGGTGCAG | 1.07
TATGGTGGCA | 1.01
TATGTAACCA | 0.982
TATGTAAGTC | 0.997
TATGTAGGTC | 1.04
TATGTATTGA | 1.02

Sequence | switch fluorescence ratio
TATGTCGGAT | 0.989
TATGTCTTCG | 1.03
TATGTGCCC | 1.03
TATGTGCTGA | 0.98
TATGTGGAAC | 0.992
TATGTGTCGC | 1
TATGTTAGAA | 1.02
TATTAA | 1.01
TATTAAGCAA | 1.59
TATTAATCGC | 0.992
TATTACACG | 1.07
TATTACCGTG | 0.994
TATTACTACA | 1.06
TATTACTGGG | 1.02
TATTAGAATT | 1.02
TATTAGATGG | 0.935
TATTAGCAGA | 1.02
TATTATATAC | 1.08
TATTATCCCA | 1.04
TATTATCGGC | 0.985
TATTATTAAT | 0.992
TATTCAAGCT | 1.02
TATTCACAGC | 1.02
TATTCATGAA | 0.97
TATTCCGTTG | 1
TATTCGTCAC | 0.995

Sequence | switch fluorescence ratio
TATTCGTCTC | 0.972
TATTGAAAAC | 0.999
TATTGACTTA | 0.968
TATTGAGCGA | 1.02
TATTGAGTA | 0.983
TATTGAGTCA | 0.969
TATTGATATG | 1.02
TATTGATTAG | 0.992
TATTGCCGGC | 1.06
TATTGCCTGG | 1.04
TATTGCGGCT | 1.04
TATTGGATCC | 1.01
TATTGGCAGT | 0.925
TATTGGTAA | 1.01
TATTGGTGAT | 1.01
TATTGTCAT | 0.979
TATTGTTCAC | 1.03
TATTGTTGCA | 0.974
TATTGTTGTC | 1.02
TATTTATGGA | 1.01
TATTTATTTC | 1.02
TATTTCAATA | 1
TATTTCATT | 0.98
TATTTCGATC | 0.998
TATTTCGTAG | 0.995
TATTTCGTTT | 0.968

Sequence | switch fluorescence ratio
TATTTCTCCG | 1.88
TATTTGGCAC | 1.28
TATTTTAACG | 1.02
TATTTTAGAC | 0.997
TATTTTCGCC | 0.992
TATTTTCGG | 0.966
TATTTTTTAC | 1.04
TCAAAACGC | 1.24
TCAAAATCGC | 0.95
TCAAACATG | 1.01
TCAAATTCTC | 1.01
TCAACAGCTT | 1.03
TCAACATCTA | 1.02
TCAACGCAGC | 1.59
TCAACGGGAG | 0.999
TCAACGTACC | 1.68
TCAACGTTAG | 0.994
TCAACTTGTA | 0.975
TCAAGAGGGA | 0.987
TCAAGATTGT | 0.995
TCAAGGGCCT | 1.04
TCAAGGTAAT | 1.04
TCAAGGTGTG | 1.08
TCAAGTTTCA | 0.981
TCAATACTGG | 1.09
TCAATATGCC | 1.03

Sequence | switch fluorescence ratio
TCAATCTCTG | 1.05
TCAATCTGGT | 1.08
TCAATGGGTG | 1.01
TCAATTGGGG | 0.972
TCAATTGTGG | 0.978
TCACAACGAC | 1.06
TCACAACTTA | 1
TCACACCGTC | 1.06
TCACACGGAT | 1.01
TCACACGTGG | 1.02
TCACAGAACA | 1.05
TCACAGAATC | 1.06
TCACAGCTCG | 0.987
TCACATATGT | 1.01
TCACATGAAA | 1.01
TCACCGGGTG | 4.46
TCACCTGA | 0.977
TCACGAATTG | 0.962
TCACGAGCTC | 1.02
